In all, about 310,000 compounds went through this assay and about 2,200 (0.71%) showed an effect of 50% or more. Effects have a minus sign here. Some of the results follow.

The target in the assay is human ether-à-go-go-related gene (hERG) potassium channel (human, UniProt Q12809). Nature of the assay: primary screen, population patch clamp on CHO cells stably expressing hERG.
human ether-à-go-go-related gene (hERG) potassium channel, sequence (Q12809 whole entry, looked up): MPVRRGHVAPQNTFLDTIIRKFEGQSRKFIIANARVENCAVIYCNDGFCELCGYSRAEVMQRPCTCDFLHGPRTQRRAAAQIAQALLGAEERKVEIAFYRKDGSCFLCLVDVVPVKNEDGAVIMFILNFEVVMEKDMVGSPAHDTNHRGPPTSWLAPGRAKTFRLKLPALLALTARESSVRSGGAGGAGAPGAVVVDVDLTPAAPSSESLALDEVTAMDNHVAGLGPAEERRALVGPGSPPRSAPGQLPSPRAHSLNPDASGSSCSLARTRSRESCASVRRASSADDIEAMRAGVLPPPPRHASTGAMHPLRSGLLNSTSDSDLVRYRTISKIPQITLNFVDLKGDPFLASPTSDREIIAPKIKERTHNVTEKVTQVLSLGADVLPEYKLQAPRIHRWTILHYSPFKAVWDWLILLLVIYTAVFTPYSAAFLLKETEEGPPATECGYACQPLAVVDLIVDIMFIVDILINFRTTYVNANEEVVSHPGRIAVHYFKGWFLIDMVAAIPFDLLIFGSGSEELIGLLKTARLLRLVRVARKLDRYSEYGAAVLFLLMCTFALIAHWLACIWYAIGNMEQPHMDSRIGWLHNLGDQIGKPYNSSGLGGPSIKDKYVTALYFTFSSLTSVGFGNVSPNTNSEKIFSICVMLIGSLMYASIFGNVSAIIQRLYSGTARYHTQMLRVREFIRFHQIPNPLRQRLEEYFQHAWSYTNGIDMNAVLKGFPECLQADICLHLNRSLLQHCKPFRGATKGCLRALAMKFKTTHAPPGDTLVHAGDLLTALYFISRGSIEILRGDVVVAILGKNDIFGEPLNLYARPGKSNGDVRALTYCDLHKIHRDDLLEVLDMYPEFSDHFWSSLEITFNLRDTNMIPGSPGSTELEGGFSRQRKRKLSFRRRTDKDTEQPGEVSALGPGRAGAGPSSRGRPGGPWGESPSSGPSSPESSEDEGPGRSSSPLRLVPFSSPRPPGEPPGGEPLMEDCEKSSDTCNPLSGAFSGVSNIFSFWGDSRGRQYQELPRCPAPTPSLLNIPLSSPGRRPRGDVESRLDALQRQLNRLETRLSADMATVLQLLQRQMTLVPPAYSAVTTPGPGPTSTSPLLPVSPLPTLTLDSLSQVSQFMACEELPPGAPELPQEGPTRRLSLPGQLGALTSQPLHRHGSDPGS
Turning to `CC(=O)c1cccc(S(=O)(=O)N2CCC(C(=O)N(C)Cc3ccc(Cl)s3)CC2)c1`, the “hERG current change (%, negative = inhibition) at 1uM” value is 6.24%. Next, `CCOc1cc(C(=O)N/N=C(\C)Cc2ccc(OC)cc2)cc(OCC)c1OCC`: -1.7%. On to `O=C(NCc1ccccc1)[C@H]1C[C@@H]1[C@H](NP(=O)(c1ccccc1)c1ccccc1)c1ccccc1`, for which the “hERG current change (%, negative = inhibition) at 1uM” value amounted to 11.5%. On to `N#Cc1ccc(CSc2ccc(S(=O)(=O)N3CCCC3)cn2)cc1`, for which the “hERG current change (%, negative = inhibition) at 1uM” value was -17.2%. Next, `CC(C)N(CCNC(=O)c1nn(Cc2ccccc2)c(=O)c2ccccc12)C(C)C`: -25.1%; `CN1CCc2nc3sc(C(=O)NC4CC4)c(N)c3cc2C1`: 5.35%. Under `O=C1/C(=C/c2ccccc2)CCC1C1CCCC1` (centres unmarked) stands 3.37%; under `Cc1nc(SC(C(=O)c2ccccc2)c2ccccc2)nc2ccccc12` (centres unmarked), 5.07%. Under `CC(=O)Nc1nonc1-c1ccccc1` stands -7.82%. On to `O=c1[nH]c(=S)n(CCC2=CCCCC2)c(O)c1C=NC1CCN(Cc2ccccc2)CC1`, for which the “hERG current change (%, negative = inhibition) at 1uM” value worked out at 2.93%. Next, `OCC1(CO)COC(c2ccccc2)=N1`: 1.59%; `O=C(Cc1c(O)c2ccccc2[nH]c1=O)NCc1ccccc1F`: 6.38%; `CCOc1cccc(CN2CCCC(CNC(=O)c3cccc(OC)c3OC)C2)c1` (centres unmarked): 5.09%. Under `CCCCNC(=O)C1=C(N)C(C(=O)Nc2ccc(C)c(S(=O)(=O)N3CCCCC3)c2)SC1=Nc1ccc(C)cc1C` (centres unmarked) stands -5.69%; under `CCc1ccc(/C(C)=N/Nc2cc(Cl)nc(C)n2)cc1`, 14.9%. Take `CCOC(=O)c1c(C)oc2ccc(O)c(CN3CCCCC3)c12`: the “hERG current change (%, negative = inhibition) at 1uM” value is reported as -14.4%.

`COCc1ccc(-c2c(-c3cccc(OC)c3)sc3ccc(OC)cc23)cc1`: the “hERG current change (%, negative = inhibition) at 1uM” value is 11.4%. Next, `Cc1cccc2cc(-c3ccccc3)c(-c3ccccc3)c[n+]12.[Br-]`: -5.36%; `COC(=O)C1C/C(=N\NS(=O)(=O)c2ccc(C)cc2)c2sccc2C1` (centres unmarked): 3.01%; `O=C1COc2ccc3ccccc3c2CN1`: 10.5%. On to `CC1(O)CCN2C(=O)CCc3cccc1c32` (centres unmarked), for which the “hERG current change (%, negative = inhibition) at 1uM” value is listed as -0.42%. Under `NC(=O)C1(N2CCCCC2)CCN(C2CC(=O)N(CCc3ccccc3)C2=O)CC1` (centres unmarked) stands -1.13%; under `Cn1c(=O)c2c(nc(N3CCc4ccccc4C3)n2Cc2ccccc2F)n(C)c1=O`, 3.55%. Under `O=C(CCNC(=O)C1CCN(S(=O)(=O)c2ccccc2)CC1)Nc1cccc(C(F)(F)F)c1` stands 2.36%; under `COc1cc(-c2noc(CCC(=O)NC3CCCCC3)n2)cc(OC)c1OC`, 15.1%. Under `O=C(c1ccc(C(=O)N2CCCCCC2)cc1)N1CCCCCC1` stands -0.715%; under `CC1CC(C)CN(CCC(=O)Nc2cccc(Cl)c2)C1` (centres unmarked), -26.9%; under `O=C(Nc1ccnc(-c2cccnc2)n1)c1cccc(Cl)c1Cl`, 9.13%. As for `CCN(CC)C(=S)Nc1ccc(C(=O)OC)cc1`, the “hERG current change (%, negative = inhibition) at 1uM” value is 3.93%. Under `CCOC(=O)C1=C(C)Nc2ncnn2C1c1cc(Br)ccc1F` (centres unmarked) stands 8.42%; under `CN(CC(=O)Nc1c(Cl)cccc1Cl)C(=O)CNC(=O)c1ccc2ccccc2c1`, 10.3%; under `CC(Sc1nnnn1-c1ccc(O)cc1)C(=O)NC1CCCCC1C` (centres unmarked), 7.54%. Consider `Cc1oc(-c2cccc3ccccc23)nc1CN1CCN(c2ncnc3ccccc23)CC1`, for which the “hERG current change (%, negative = inhibition) at 1uM” value is listed as 2.48%. On to `CCC1=Nc2cc(C(=O)NCc3cccnc3)ccc2Sc2ccc(C)cc21`, for which the “hERG current change (%, negative = inhibition) at 1uM” value is 9.85%. Next, `O=C(CN(C(=O)C1CSC(=O)C1)c1ccccc1F)NCc1ccc2c(c1)OCO2` (centres unmarked): 2.3%. As to `Cc1ccc(S(=O)(=O)CCC(=O)OCC(=O)N2c3ccccc3NC(=O)C2(C)C)cc1`, the “hERG current change (%, negative = inhibition) at 1uM” value is on record as 13.5%.

On to `Cc1c2cnn(CC(=O)N3CCC4(CC3)OCCO4)c(=O)c2c(C)n1Cc1ccccc1`, for which the “hERG current change (%, negative = inhibition) at 1uM” value was -3.91%. Next, `O=C(N/N=C/c1ccc(OC(F)F)cc1OC(F)F)c1ccc(Br)cc1`: 10.7%; `c1ccc(CCN2CCN(c3ncnc4c3cnn4-c3ccccc3)CC2)cc1`: 8.45%; `CCn1c(=O)cc(OCC(=O)N2CCCCCC2)c2ccccc21`: 11.2%. Next, `CCCCCC(=O)Nc1cc(S(=O)(=O)N2CCOCC2)ccc1N1CCCCC1`: 0.999%.

For `Cc1cc(/C=C2\C(=O)NC(=O)N(Cc3ccccc3Cl)C2=O)c(C)n1-c1ccc(C(=O)O)cc1`, the “hERG current change (%, negative = inhibition) at 1uM” value came to 20.9%. On to `CCOc1ccc(C(=O)Nc2cccc(-c3nc4ccccc4[nH]3)c2C)cc1[N+](=O)[O-]`, for which the “hERG current change (%, negative = inhibition) at 1uM” value was -4.51%. Next, `Cc1nn(C)c(C)c1C1C(C#N)=C(N)Oc2n[nH]c(C)c21` (centres unmarked): 3.63%; `Cc1ccc(N/N=C/c2ccc(N3CCOCC3)cc2)cc1C`: 6.49%. Next, `COc1ccc(CNC(=O)CN2CCC(NC(=O)c3ccccc3C)CC2)cc1`: -3.19%; `O=S(=O)(c1ccc2c(c1)nc1n2CCC1)N1CCOCC1`: -13.3%; `COc1ccc(-c2csc(N3N=C(C)C(C)C3=O)n2)cc1` (centres unmarked): 4.01%. Regarding `COCCNC(C)C(=O)C12CC3CC(CC(C3)C1)C2.Cl` (centres unmarked), the “hERG current change (%, negative = inhibition) at 1uM” value is 5.23%. Next, `Cc1nnc(SCC(=O)N(C2CCCCC2)C2CCS(=O)(=O)C2)n1C` (centres unmarked): 17.5%. Under `CCNC(=S)N(CCCN(C)C)Cc1cc2cc3c(cc2[nH]c1=O)OCCO3` stands 3.41%.

For the molecule `CCNC(=S)N=Nc1c(O)n(Cc2ccc(Cl)cc2)c2ccccc12`, the “hERG current change (%, negative = inhibition) at 1uM” value amounted to 2.86%.

Take `[O-]c1c[n+](-c2ccccc2)no1`: the “hERG current change (%, negative = inhibition) at 1uM” value was determined as 11.2%. Next, `C[n+]1cnc(-c2ccccc2)cc1-c1ccccc1.[I-]`: 9.5%; `Cc1cc(OCC(=O)NC2CC2)c2c(C)cc(=O)oc2c1`: 15%; `Cc1cccc(C(=O)Nc2nc3ccc(S(C)(=O)=O)cc3s2)c1`: 7.82%.

(Values after article PMC4336329 (PLoS ONE, 2015).)
